Details: rhesus monkey, in vivo
Description: Fasted rhesus monkeys were sedated with Ketamine (10 mg/kg, intramuscular). An intrevenous catheter was inserted into the right and left saphenous veins and the animals were maintained on propofol anesthesia (5 mg/kg for induction and 0.45 mg/kg/min throughout the scanning procedure). Following the initial induction with propofol, the animal was intubated and maintained on ventilated oxygen/air gas mixture at approximately 10 cm^3/kg/breath, and 23 respirations per minute. Animals were instrumented with a temperature probe, a pulse oximeter and an end tidal CO2 monitor. Body temperature was maintained using K-module heating pads. General fluid therapy was maintained with Lactated Ringer's solution (10 ml/kg/h i.v.) throughout the scanning procedure. […] Whole body dynamic scan was initiated at the start of the tracer injection and acquired for 180 min using a Siemens Biograph 64 TPTV PET/CT scanner. Whole body reconstruction was performed using the PET/CT scanner vendor supplied software. PET image analysis was performed using customized Matlab based software.

Row | Molecule | lymph node and spleen targeting
1 | [^18F]AIF-NOTA-Z15168: Z15168-Cys conjugated with NOTA at C-terminal cysteine and radiolabeled with [^18F]AIF (conjugate, NOTA-maleimide on the unique C-terminal cysteine, labelled with [18F]AIF, Z15168-Cys conjugated with NOTA at C-terminal cysteine and radiolabeled with [^18F]AIF) AEAKYAKERNNAAFEILRLPNLTNGQHWAFIWKLADDPSQSSELLSEAKKLNDSQAPKVDC | lymph node and spleen targeting was observed
2 | [^18F]AIF-NOTA-Z18609: Z18609-Cys conjugated with NOTA at C-terminal cysteine and radiolabeled with [^18F]AIF (conjugate, NOTA-maleimide on the unique C-terminal cysteine, labelled with [18F]AIF, Z18609-Cys conjugated with NOTA at C-terminal cysteine and radiolabeled with [^18F]AIF) AEAKYAKERNAAAYEILYLPNLTNAQKWAFIWKLDDDPSQSSELLSEAKKLNDSQAPKVDC | lymph node and spleen targeting was observed

Source: US11155596B2, “Polypeptide” (AFFIBODY AB, priority 2016, dated 2021)
